{"sequences": {"note": "Sequences of proteins named here, by UniProt entry; tags and fusion partners are left off.", "UniProt Q7KZI7": "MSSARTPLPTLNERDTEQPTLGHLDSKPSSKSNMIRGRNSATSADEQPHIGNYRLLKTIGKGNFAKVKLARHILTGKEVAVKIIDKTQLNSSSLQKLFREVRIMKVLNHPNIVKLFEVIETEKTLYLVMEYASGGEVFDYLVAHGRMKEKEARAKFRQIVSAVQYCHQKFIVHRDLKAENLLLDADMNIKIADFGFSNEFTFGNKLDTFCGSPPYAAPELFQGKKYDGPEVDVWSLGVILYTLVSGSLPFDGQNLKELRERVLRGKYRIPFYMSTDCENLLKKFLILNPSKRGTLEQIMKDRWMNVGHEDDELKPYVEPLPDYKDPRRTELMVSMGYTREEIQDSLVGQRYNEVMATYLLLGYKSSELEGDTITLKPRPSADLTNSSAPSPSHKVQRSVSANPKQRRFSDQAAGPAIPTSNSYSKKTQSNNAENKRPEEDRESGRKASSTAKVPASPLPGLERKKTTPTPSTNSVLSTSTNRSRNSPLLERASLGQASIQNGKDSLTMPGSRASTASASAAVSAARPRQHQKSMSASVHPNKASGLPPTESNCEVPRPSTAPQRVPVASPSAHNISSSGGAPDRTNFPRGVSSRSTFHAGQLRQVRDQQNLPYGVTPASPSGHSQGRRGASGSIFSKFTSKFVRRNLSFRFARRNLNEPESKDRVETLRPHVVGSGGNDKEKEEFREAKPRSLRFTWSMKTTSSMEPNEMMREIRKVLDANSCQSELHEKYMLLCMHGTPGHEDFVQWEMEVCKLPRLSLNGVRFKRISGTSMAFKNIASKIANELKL", "UniProt P27448": "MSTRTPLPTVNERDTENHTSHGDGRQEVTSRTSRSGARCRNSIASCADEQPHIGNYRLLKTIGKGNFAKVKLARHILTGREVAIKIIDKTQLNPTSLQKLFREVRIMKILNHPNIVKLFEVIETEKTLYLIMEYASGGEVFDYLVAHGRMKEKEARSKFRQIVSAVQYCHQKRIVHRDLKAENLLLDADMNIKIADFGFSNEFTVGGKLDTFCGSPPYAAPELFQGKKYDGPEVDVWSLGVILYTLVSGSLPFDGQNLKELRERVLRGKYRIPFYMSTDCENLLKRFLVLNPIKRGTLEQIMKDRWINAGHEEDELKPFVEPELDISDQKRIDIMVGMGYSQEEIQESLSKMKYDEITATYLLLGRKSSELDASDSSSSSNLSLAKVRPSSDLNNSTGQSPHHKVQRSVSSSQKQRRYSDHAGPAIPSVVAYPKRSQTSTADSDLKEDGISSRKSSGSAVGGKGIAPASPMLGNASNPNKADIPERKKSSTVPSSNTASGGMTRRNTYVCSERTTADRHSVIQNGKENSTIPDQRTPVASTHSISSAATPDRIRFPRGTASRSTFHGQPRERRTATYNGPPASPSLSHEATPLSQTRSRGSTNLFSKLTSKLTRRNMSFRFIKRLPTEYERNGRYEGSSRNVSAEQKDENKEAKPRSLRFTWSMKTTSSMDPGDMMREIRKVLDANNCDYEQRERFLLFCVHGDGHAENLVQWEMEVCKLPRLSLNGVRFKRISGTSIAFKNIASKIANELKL", "UniProt Q05512": "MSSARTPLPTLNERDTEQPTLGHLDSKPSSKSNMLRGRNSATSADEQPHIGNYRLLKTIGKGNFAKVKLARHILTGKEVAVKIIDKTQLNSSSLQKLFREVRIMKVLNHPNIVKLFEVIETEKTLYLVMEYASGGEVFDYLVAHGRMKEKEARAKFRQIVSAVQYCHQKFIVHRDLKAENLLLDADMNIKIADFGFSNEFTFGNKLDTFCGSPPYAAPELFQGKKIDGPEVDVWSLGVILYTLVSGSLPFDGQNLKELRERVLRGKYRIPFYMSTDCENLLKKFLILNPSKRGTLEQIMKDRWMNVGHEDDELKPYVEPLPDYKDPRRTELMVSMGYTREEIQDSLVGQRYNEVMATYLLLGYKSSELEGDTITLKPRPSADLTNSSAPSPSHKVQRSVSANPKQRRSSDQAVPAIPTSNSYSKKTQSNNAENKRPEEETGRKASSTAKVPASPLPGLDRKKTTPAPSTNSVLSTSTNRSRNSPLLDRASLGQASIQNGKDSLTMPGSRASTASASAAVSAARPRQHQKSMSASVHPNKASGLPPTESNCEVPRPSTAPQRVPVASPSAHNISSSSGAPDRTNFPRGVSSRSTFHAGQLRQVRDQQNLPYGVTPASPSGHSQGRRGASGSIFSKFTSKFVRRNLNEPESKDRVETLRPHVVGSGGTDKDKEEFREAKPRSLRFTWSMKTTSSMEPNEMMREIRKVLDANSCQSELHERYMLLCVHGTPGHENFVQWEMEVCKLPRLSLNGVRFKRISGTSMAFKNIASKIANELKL", "UniProt Q03141": "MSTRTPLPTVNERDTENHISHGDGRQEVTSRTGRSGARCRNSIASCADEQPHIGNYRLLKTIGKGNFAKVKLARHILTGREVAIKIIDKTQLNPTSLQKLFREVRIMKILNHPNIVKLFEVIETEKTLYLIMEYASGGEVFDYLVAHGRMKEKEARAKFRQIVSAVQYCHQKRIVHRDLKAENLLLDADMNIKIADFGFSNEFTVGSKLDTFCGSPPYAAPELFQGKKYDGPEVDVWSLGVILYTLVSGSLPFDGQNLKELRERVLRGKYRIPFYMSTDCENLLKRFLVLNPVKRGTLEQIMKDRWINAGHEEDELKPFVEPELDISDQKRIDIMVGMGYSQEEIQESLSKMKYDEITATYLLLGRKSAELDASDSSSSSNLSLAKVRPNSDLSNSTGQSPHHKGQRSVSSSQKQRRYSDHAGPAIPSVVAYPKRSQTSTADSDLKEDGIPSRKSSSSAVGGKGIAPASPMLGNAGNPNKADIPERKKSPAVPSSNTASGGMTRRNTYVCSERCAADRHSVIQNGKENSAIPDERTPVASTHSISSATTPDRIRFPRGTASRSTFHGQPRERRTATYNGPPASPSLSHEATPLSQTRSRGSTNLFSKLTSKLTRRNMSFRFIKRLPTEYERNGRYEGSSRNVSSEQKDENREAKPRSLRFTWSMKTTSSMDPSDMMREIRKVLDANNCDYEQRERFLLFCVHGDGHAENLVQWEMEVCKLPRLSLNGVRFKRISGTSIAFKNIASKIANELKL", "UniProt P35240": "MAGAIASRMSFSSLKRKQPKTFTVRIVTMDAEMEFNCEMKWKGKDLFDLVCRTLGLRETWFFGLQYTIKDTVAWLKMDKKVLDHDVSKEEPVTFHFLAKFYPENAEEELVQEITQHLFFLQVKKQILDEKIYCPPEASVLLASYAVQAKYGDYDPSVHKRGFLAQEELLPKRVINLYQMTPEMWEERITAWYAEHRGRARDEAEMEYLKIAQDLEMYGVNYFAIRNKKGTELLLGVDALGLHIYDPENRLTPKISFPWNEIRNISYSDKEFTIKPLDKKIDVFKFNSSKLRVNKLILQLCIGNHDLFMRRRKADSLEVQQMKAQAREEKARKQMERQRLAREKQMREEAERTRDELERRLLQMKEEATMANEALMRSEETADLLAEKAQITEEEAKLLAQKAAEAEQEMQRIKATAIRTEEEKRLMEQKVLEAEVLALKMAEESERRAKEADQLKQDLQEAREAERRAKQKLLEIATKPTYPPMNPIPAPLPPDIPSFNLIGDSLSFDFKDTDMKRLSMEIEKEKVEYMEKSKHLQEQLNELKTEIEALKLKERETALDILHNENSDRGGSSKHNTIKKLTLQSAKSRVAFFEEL", "UniProt Q96NE9": "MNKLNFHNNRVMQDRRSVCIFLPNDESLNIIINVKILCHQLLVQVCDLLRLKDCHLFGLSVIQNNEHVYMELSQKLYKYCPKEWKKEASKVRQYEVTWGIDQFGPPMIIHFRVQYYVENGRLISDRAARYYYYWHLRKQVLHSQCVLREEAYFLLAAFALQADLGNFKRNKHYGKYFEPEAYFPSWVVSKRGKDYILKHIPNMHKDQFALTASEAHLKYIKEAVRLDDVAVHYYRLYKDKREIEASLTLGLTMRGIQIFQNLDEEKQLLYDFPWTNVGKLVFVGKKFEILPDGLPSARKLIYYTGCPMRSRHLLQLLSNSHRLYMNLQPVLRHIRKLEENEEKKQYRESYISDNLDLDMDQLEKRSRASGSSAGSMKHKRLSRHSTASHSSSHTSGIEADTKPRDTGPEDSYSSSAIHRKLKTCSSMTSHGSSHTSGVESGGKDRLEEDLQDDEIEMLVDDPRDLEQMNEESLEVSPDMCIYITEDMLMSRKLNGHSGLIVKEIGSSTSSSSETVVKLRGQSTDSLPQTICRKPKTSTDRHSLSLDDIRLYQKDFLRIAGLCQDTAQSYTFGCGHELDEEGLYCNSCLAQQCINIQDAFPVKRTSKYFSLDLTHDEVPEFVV", "UniProt Q9P0L2": "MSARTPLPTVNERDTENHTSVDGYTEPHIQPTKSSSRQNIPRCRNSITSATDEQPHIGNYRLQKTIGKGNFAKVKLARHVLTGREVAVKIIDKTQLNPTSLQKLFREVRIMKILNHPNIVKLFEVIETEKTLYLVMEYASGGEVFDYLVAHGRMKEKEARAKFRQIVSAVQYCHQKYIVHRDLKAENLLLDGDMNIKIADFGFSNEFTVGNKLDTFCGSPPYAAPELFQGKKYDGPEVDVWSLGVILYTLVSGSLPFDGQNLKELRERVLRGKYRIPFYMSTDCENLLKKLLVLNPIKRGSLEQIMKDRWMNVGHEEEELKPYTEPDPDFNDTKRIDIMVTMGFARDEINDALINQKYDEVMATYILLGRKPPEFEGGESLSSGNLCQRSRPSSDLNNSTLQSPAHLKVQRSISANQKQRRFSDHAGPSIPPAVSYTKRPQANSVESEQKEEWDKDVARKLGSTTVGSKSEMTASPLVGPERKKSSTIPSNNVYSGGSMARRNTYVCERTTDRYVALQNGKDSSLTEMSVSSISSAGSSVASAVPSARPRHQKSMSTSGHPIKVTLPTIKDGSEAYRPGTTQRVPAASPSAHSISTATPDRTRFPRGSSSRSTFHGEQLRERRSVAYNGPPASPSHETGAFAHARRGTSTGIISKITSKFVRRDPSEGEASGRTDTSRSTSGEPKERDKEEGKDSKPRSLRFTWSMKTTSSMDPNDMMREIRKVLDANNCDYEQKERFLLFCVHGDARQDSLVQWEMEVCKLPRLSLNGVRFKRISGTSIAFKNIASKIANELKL"}, "source": "paper PMC10575737", "molecules": {"B1": {"name": "RASSF1 (tested for direct binding to NUMB1) (protein, UniProt Q9NS23 1-344)", "chain": "MSGEPELIELRELAPAGRAGKGRTRLERANALRIARGTACNPTRQLVPGRGHRFQPAGPATHTWCDLCGDFIWGVVRKGLQCARLSADCKFTCHYRCRALVCLDCCGPRDLGWEPAVERDTNVDEPVEWETPDLSQAEIEQKIKEYNAQINSNLFMSLNKDGSYTGFIKVQLKLVRPVSVPSSKKPPSLQDARRGPGRGTSVRRRTSFYLPKDAVKHLHVLSRTRAREVIEALLRKFLVVDDPRKFALFERAERHGQVYLRKLLDDEQPLRLRLLAGPSDKALSFVLKENDSGEVNWDAFSMPELHNFLRILQREEEEHLRQILQKYSYCRQKIQEALHACPLG"}}, "key": {"[1]": {"biological_target": "T1, NUMB3 (UniProt P49757)", "T1 sequence": "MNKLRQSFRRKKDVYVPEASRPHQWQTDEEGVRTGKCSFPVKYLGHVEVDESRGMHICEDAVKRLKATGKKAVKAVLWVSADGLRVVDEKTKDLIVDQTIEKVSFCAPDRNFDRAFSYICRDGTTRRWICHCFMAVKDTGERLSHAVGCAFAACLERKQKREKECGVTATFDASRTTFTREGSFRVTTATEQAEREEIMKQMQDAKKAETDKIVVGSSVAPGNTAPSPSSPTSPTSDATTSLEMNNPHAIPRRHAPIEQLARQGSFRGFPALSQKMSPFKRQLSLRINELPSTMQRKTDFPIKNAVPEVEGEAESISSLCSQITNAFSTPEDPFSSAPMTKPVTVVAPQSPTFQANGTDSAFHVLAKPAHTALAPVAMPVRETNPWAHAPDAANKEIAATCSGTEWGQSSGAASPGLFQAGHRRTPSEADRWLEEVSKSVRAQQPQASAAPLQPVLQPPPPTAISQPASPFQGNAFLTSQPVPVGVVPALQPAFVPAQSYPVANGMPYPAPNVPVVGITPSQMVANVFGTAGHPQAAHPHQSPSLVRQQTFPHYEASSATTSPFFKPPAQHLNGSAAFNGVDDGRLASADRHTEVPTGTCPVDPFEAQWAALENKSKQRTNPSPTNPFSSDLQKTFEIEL", "test": "co-IP; whole-cell lysates from HEK293T cells cotransfected with the indicated constructs"}, "[2]": {"biological_target": "T2, NUMB1 (UniProt P49757)", "T2 sequence": "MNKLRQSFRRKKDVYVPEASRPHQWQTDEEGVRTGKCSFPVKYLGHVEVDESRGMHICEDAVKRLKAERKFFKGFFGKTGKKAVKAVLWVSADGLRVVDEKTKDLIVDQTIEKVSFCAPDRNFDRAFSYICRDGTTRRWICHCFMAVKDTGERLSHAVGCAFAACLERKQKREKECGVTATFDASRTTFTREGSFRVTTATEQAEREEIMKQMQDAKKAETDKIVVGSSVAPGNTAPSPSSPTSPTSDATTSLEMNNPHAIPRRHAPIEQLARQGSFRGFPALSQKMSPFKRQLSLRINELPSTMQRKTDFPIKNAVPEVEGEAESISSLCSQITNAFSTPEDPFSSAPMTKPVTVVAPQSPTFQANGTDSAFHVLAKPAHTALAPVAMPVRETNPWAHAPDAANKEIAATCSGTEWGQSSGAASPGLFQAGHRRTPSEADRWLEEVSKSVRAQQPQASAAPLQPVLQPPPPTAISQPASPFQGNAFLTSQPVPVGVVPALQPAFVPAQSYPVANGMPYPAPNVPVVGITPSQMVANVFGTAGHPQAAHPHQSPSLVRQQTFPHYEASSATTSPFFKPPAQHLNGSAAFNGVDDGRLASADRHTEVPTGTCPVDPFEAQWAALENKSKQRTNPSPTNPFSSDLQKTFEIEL", "test": "co-IP; whole-cell lysates from HEK293T cells cotransfected with the indicated constructs"}, "[3]": {"biological_target": "T3, NUMB2 (UniProt P49757)", "T3 sequence": "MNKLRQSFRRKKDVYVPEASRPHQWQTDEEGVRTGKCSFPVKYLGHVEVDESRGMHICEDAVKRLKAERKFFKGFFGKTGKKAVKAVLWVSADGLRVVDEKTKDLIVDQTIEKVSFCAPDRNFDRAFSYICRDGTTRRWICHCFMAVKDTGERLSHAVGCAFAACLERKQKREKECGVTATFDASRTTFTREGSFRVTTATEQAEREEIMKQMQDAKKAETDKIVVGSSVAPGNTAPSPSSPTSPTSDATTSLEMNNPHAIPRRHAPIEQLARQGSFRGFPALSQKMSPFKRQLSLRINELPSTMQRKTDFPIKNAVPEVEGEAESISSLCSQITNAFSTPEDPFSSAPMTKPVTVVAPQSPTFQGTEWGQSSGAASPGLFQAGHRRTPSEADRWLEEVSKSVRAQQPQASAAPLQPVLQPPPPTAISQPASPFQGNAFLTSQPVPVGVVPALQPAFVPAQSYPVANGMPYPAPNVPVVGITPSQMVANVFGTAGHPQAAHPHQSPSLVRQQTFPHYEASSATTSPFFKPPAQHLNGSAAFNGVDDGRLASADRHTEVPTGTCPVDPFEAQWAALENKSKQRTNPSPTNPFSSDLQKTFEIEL", "test": "co-IP; whole-cell lysates from HEK293T cells cotransfected with the indicated constructs"}, "[4]": {"biological_target": "T4, NUMB4 (UniProt P49757)", "T4 sequence": "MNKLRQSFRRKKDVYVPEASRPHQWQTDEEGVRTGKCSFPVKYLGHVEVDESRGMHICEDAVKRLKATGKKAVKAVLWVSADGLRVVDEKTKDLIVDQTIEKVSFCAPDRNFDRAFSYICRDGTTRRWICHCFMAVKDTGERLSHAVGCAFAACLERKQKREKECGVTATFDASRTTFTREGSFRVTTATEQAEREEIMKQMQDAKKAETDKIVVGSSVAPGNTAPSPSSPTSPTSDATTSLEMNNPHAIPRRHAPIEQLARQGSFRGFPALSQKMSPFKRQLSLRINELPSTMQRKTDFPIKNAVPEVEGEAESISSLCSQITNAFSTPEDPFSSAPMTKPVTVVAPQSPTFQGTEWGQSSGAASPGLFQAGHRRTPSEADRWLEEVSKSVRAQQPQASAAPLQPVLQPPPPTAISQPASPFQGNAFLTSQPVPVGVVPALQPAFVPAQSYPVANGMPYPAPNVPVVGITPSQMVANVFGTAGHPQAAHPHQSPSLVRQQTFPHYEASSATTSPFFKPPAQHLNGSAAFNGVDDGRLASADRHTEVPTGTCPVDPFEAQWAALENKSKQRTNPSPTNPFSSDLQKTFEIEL", "test": "co-IP; whole-cell lysates from HEK293T cells cotransfected with the indicated constructs"}, "[5]": {"biological_target": "T5, NUMB endocytic adaptor protein (human (endogenous in HepG2)) (UniProt P49757)", "T5 sequence": "T2 sequence", "test": "co-IP; whole-cell lysates from HepG2 cells cultured at different cell densities (LCD, HCD), endogenous proteins; also SPTAN1 Y1176F knock-in cells, knockdown of SRC or bosutinib"}, "[6]": {"biological_target": "T6, sterile 20-like kinase MST1 (human (endogenous in HepG2)) (UniProt Q13043)", "T6 sequence": "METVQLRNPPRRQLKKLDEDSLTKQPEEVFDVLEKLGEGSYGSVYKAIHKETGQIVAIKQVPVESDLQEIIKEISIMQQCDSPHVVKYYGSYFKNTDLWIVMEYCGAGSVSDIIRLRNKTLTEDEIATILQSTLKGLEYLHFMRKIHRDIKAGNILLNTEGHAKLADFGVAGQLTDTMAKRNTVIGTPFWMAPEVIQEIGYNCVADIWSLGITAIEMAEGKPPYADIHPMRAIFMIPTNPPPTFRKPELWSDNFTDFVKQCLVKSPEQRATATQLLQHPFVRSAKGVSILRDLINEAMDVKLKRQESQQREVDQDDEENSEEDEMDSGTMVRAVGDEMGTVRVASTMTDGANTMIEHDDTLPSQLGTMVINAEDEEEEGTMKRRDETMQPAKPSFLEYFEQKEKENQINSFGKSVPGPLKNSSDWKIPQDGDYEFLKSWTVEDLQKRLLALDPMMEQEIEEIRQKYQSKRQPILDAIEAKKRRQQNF", "test": "co-IP; whole-cell lysates from HepG2 cells cultured at different cell densities (LCD, HCD), endogenous proteins; also SPTAN1 Y1176F knock-in cells, knockdown of SRC or bosutinib"}, "[7]": {"biological_target": "T7, GST-tagged NUMB1 (UniProt P49757)", "T7 sequence": "T2 sequence", "test": "pull-down; GST affinity bead precipitates of GST-tagged NUMB with His-tagged proteins, immunoblot; test of direct binding; both purified"}, "[8]": {"biological_target": "T8, MST1 (mouse hepatocytes) (mouse (endogenous in hepatocytes)) (UniProt Q9JI11)", "T8 sequence": "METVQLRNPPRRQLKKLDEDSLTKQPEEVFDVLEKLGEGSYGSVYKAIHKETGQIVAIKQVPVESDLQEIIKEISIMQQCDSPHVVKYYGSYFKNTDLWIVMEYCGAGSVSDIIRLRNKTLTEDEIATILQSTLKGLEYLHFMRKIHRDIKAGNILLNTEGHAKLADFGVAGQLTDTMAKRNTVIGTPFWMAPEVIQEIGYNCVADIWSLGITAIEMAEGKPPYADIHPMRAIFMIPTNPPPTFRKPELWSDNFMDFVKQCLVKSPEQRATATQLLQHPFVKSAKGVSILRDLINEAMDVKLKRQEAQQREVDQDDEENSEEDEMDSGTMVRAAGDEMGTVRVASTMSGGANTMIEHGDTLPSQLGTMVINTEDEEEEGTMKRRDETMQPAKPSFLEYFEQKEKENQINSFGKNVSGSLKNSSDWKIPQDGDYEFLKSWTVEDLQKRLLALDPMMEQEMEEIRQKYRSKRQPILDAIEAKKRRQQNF", "test": "co-IP; whole-cell lysates of primary hepatocytes from mice (WT; Numb and Ww45 knock-outs; with or without DDC), endogenous proteins"}, "[9]": {"biological_target": "NUMB (mouse hepatocytes) (mouse (endogenous in primary hepatocytes)) (UniProt Q9QZS3)", "test": "co-IP; whole-cell lysates of primary hepatocytes from mice (WT; Numb and Ww45 knock-outs; with or without DDC), endogenous proteins"}}, "note": "No constants are given. Whether binding was seen depends on the method and setting. For some assays here: Binding seen in cells or lysates may run through a third protein. Some entries that bind do so weakly or less than the wild type. For some assays here: Where a sequence is shown, tags or fusion partners need not be part of it."}
{"molecule": "MARK2 (cotransfected with the NUMB isoforms) (from UniProt Q7KZI7 1-788) (enzyme)", "values": [{"measurement": "binding", "setting": "[1]", "result": "binds"}, {"measurement": "binding", "setting": "[2]", "result": "binds"}, {"measurement": "binding", "setting": "[3]", "result": "binds"}, {"measurement": "binding", "setting": "[4]", "result": "binds"}]}
{"molecule": "microtubule affinity-regulating kinase 3 (from UniProt P27448 1-753) (enzyme)", "values": [{"measurement": "binding", "setting": "[5]", "result": "binds"}]}
{"molecule": "microtubule affinity-regulating kinase 2 (from UniProt Q7KZI7 1-788) (enzyme)", "values": [{"measurement": "binding", "setting": "[6]", "result": "binds"}, {"measurement": "binding", "setting": "[5]", "result": "binds"}]}
{"molecule": "His-tagged MARK2 (from UniProt Q7KZI7 1-788) (enzyme)", "values": [{"measurement": "binding", "setting": "[7]", "result": "binds"}]}
{"molecule": "MARK2 (mouse hepatocytes) (from UniProt Q05512 1-776) (enzyme)", "values": [{"measurement": "binding", "setting": "[8]", "result": "binds"}, {"measurement": "binding", "setting": "[9]", "result": "binds"}]}
{"molecule": "His-tagged MARK3 (from UniProt P27448 1-753) (enzyme)", "values": [{"measurement": "binding", "setting": "[7]", "result": "binds"}]}
{"molecule": "MARK3 (mouse hepatocytes) (from UniProt Q03141 1-753) (enzyme)", "values": [{"measurement": "binding", "setting": "[9]", "result": "binds"}]}
{"molecule": "AMOT (tested for direct binding to NUMB1) (from UniProt Q4VCS5 1-1084)", "values": [{"measurement": "binding", "setting": "[7]", "result": "no binding"}]}
{"molecule": "NF2 (tested for direct binding to NUMB1) (from UniProt P35240 1-595)", "values": [{"measurement": "binding", "setting": "[7]", "result": "no binding"}]}
{"molecule": "FRMD6 (tested for direct binding to NUMB1) (from UniProt Q96NE9 1-622)", "values": [{"measurement": "binding", "setting": "[7]", "result": "no binding"}]}
{"molecule": "His-tagged MARK1 (from UniProt Q9P0L2 1-795) (enzyme)", "values": [{"measurement": "binding", "setting": "[7]", "result": "binds"}]}
{"molecule": "B1", "values": [{"measurement": "binding", "setting": "[7]", "result": "no binding"}]}
